Experimental data taken from the supplement of paper PMC11417369.
The other results are listed elsewhere or left out.

test system: PfSIP2 AP2 domain 1 (GST-tagged); test: gcPBM binding intensity (ln(normalized median fluorescence intensity)); higher = stronger DNA binding
Outline: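 An Agilent 4 × 180k array of primer-extended double-stranded 36-bp intergenic genomic probes, with negative controls, was incubated for 1 h with GST-tagged P. falciparum DNA-binding domains expressed in E. coli. Alexa488 anti-GST antibody detected bound protein, scanned at 488 nm. Binding intensity is the highest Masliner-normalised natural-log median intensity across replicate spots of either probe orientation.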

Sequence | gcPBM binding intensity (ln)
TTCTCATAATTAAATAGTACATATTTTAATAATCAC [XGTACX_site6116] | 7.14
TGTTAAAGAGAAAGTACTACACATATTATGTGTTTT [XGTACX_site1435] | 6.88
TTTTATAAACAGAGGGGTACGGGAAAAAAAAAAAAA [XGTACX_site1480] | 7.11
TTAAAAAAAATTATTTGTACTTAAAAATTTTATATT [XGTACX_site8751] | 6.86
AGAAAAAAAAAACACACACACACACCGTCAATATAA [CACACA_site7895] | 6.86
TTTTTAAACCATGTTGTGCACATTTTTTTTGGATTT | 9.2
AAAATTATATATTATAGTACATAAAATTTTGATATA [XGTACX_site994] | 6.91
TTTGTACCGGCATTTTTTTTTTCTTTTTTTTTCCAA [XGTACX_negctrl_site323] | 6.73
TTAGTTATTATAATTTGTACACAAATGGTAAAGTAT [XGTACX_site2343] | 7.25
TATTAAAAATGTTAAGTGCAAAAATAAAAATTGTGG [GTGCAC_site9854] | 7.71
ATTTTTTTTTTTTTTTTGGGGGGGTATACTTTTAAA [CACACA_negctrl_site1020] | 10.7
TTCCTTTTTTTTTATTGTACAAAAATATCAAAAAGG [XGTACX_site8505] | 7.23
AATTATATAACAAATTGTACGAATGAAAATATTATT [XGTACX_site4237] | 6.94
TAAAAATAGGAATACGCACACGATGATTAATTTATA [CACACA_site1835] | 6.67
TATAATGAGGATGATAGTACGTATTAGTATAAAAAA [XGTACX_site6623] | 7.14
TTTATATATATTTATACACACAAACATAATACTACT [CACACA_site5161] | 6.97
TTTTTAATTTTATATACACACATAAAATATATGAAG [CACACA_site3145] | 7.01
TGTTATTATAACATTTTTTTCAAAATAGCTTTAGAA [CACACA_negctrl_site266] | 6.77
ATAATACCCAAGCACACACACACACCGATATATATA [CACACA_site8344] | 7.35
AATTTATAAGAATAAAGTACTAAAGATACAACTTTA [XGTACX_site7153] | 6.87
ATTAAAGGAAGCAAAACATGCAACAGCAATATTGCA [TGCATGCA_site452] | 6.67
ATATATTGGAGCACAACACACACAAGTATATATATG [CACACA_site8435] | 7.21

Sequence | gcPBM binding intensity (ln)
AAAAAAAAATACAAAATAGCAATAAATACACAAACG [GTGCAC_negctrl_site707] | 7.01
AAAAAAAAAAAAAACACACAGAACAATATATAAATA [CACACA_site982] | 7.11
AAAAAAAAAAAAAAAACATGCACAAATTATAAGTGA [TGCATGCA_site378] | 7.66
ACTACATAATACTATTCACACATTTTTTTTTTTTTT [CACACA_site5794] | 7.13
AATTTTTTTTTAATCATGCACACTGTTAAAAGAATA [CACACA_site1240] | 8.99
AAAAAATAGAATATAAAAATAAAGGAATTAAATTAA [XGTACX_negctrl_site420] | 6.47
TTTTAAAAATTAAGTGCATGTCCTTATAAAAAAAAA [TGCATGCA_site845] | 8.67
TTCATATATTTAGGACGTACTTTTATATTACTATAT [XGTACX_site6456] | 6.93
ATATGGAATAATACGCGTACACACATATATATATTA [XGTACX_site307] | 7.3
TTTATATCATTACAAGTGCATATCATCATAAATTCT [GTGCAC_site9878] | 8.22
TCTTGATTATATAGTACTACACATTATAAAAAAATT [XGTACX_site2465] | 7.21
TATATATAAATATATGTGCACTTTTTATATTTATAT | 10.6
AAAATTACTATATGAACACACATGATTAGATATATG [CACACA_site3083] | 6.76
TATATATATATATACACACACACCCTAAAAATATAT [CACACA_site1611] | 9.07
TGAAAGAATTAATTTTGTACATATAAAAATTTTATT [XGTACX_site8500] | 6.9
TTTTTATTTTTAAAGGCACACACATTTTTATTTTTA [CACACA_site8624] | 7.04
AATAAATAAATAATATAATGAAATTATAAAATGTGG [TGCATGCA_negctrl_site385] | 6.82
AAATGAAATTTGTATACACACAAATATATTTATATA [CACACA_site6525] | 6.85
TATTTGTGCCAAAAATGAAAAAGTTTGTATAAAACC [CACACA_negctrl_site1406] | 7.04
AATGATCATAAATACACACACACAAAAAAAAAAAAA [CACACA_site6072] | 7.1
TATTAAAAAAATGTATGTACATATATAAATTTTTTT [XGTACX_site1094] | 6.96
GATGGATTTATTTAAAGTACATATTTAAAAAACTGT [XGTACX_site7567] | 6.89

Sequence | gcPBM binding intensity (ln)
TTTCTCCCATTTTTTAGTACACAAAATATATATGTA [XGTACX_site7218] | 7.29
AAAGTAAAAGAAAGCACACACACATGTATATATGTA [CACACA_site3857] | 6.86
AAAAAAAAAAAATATACACACACATATATATATATA [CACACA_site9123] | 9.56
AACAACAATTTCGTCATACACACATTCAGAATATAT [CACACA_site2371] | 7.11
CAGGCGTGAAATATACGTACACACATTATTTATATT [XGTACX_site5337] | 7.03
ATATAAATTATTTACACACAAACATTTATACTTTTA [CACACA_site3448] | 7.17
TTTTGTTACGGCAAGGAAGTTAAGCATAAATGAATG [GTGCAC_negctrl_site173] | 7.21
ATATTTTTTGCTATTACACACAAGGGATTATTATTT [CACACA_site7776] | 7.3
AAGAAAAAAAATATATATGTATATATTATTTTAACA [TGCATGCA_negctrl_site534] | 6.83
TAATAATAGTCTAATACATGCATCGATAACGGAACT [TGCATGCA_site98] | 6.75
ATGTTAATAACTTGTGGTACTGTTATAATTTAGTAA [XGTACX_site2114] | 6.99
ATATATCTACTGTGTTGTACTGTTAATATTTGAATA [XGTACX_site1931] | 7.05
ATATAAGTGTATCTAACACACAAATATGTAAAAATG [CACACA_site7006] | 6.93
TATATACACATATATACACACACATATATATATATA [CACACA_site9127] | 9.28
GACAAAAAATTAAAATAAAATAATAATATAATAAAA [GTGCAC_negctrl_site234] | 6.66
ATATAATAGTTATATTGTACATAAATTATACACCTT [XGTACX_site628] | 6.83
TATAAACACCCATATAAACACACATATAAACCAACA [CACACA_site8790] | 7.25
ATACGCACACATATATGTACATATTGTATATATATA [XGTACX_site3962] | 8.11
ACAATTTACACTTAAACACACAAAAAAAAATTATAT [CACACA_site2065] | 6.98
AAGGTAGAAATATGTTGTACGGTTTGGAGGAAGCAA [XGTACX_site1105] | 7.26
GCATCGATCAAACATACACACATGGTTAATAAAAAT [CACACA_site8651] | 7.17
ACATATATATTCATATGTACATATACATACATACAT [XGTACX_site4563] | 8.12

Sequence | gcPBM binding intensity (ln)
GTTAAAATTGGGGACGCATGTTCCTTTCCTTTTTTT [TGCATGCA_site1002] | 6.64
TTATAAATGTAACGATGTACTTTTAAAAGTTTCCTT [XGTACX_site109] | 6.88
GGAATGGTACATGATACACACACGCACATATATATA [CACACA_site5825] | 7.5
TATATTAAACAATATACACACATTAATGTATACATA [CACACA_site2755] | 6.91
TTTTTTATAAAATTTTTTTTTTAAAATATTAAAACT [XGTACX_negctrl_site240] | 6.74
AAGCTATATATAGGCAGTACTTTGTAAGTGTAGATA [XGTACX_site8365] | 7.05
AAAAAAAAAAAAAAAACACACAGAACAATATATAAA [CACACA_site4698] | 7.4
TATATGCATATACATACACACATAACACATACGTTT [CACACA_site3832] | 7.23
TTTCTAATTCTTAGTGGTACACAGTTCTGCTGATAT [XGTACX_site2391] | 7.5
ATATGTCACTTGTATACACACATATAGATTTCAATC [CACACA_site7519] | 7.11
TATTTGTTGTGAGTCACACATATATATATATATATA [CACACA_site4240] | 9.59
TTTTCATAAAATCATTGTACATTTATCGTATATTAA [XGTACX_site3855] | 6.95
ATATTGTAAGTAAACACACACACATATATATGTATA [CACACA_site8124] | 7.11
AAAATATCTTATATATGTACATATTTATATTTATAT [XGTACX_site6027] | 6.96
TTGTTTTTTTTTGGCTGTACGTTCATAAATTTTTTT [XGTACX_site4165] | 7.22
TACTATAAGATATATACACACAAGAAATACAAAACG [CACACA_site6764] | 7.53
ATGATTATTTTAAAAAGTACTAATTATTATTTTTTT [XGTACX_site7242] | 6.93
GAATATGAATATTTGCGTACTTATATAACTGTTCTA [XGTACX_site883] | 6.83
AAAAAAAATAATAATACACACAATATGATATGTACA [CACACA_site850] | 6.87
ATACACATTCGAAATAACAAAAAAATACATACACAT [GTGCAC_negctrl_site628] | 7.04
TTTTTATACAATTAGACACACACAAAAAGTATATAT [CACACA_site8272] | 7.11
ATATATGTATATTTTTGTACGCATAAATATATTTTT [XGTACX_site827] | 7.13
